Where “and” joins values, the source holds several entries; their conditions need not be identical. Equal entries are not always repeated. The inconclusive results got no clear call from the source; some entries with a clear call stand among them for comparison. Potencies of inconclusive entries are doubtful fits and often do not repeat. Calls of active or inactive are those of the source. Calls come from the whole dose curve; as a rule, active = well fitted inhibition curve with a large enough effect; inconclusive = small, poorly fitted or top-dose-only effect; inactive = flat fitted curve, though single readings scatter.
The molecules below were run on HaCat (assay: Cytotoxic Profiling of Annotated Libraries Using Quantitative High-Throughput Screening (AID 1296008; note: nearly all actives have a fitted effect of over 60% in size)). Conditions: Five cell lines viability, CellTiter-Glo ATP luminescence, 48-72 h; max response: stronger effect = lower value.
Procedure, shortened: (§1)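 Cells exposed to compounds for 48 or 72 hr at 37 degrees Celsius. Viability read as ATP-coupled luminescence with CellTiter-Glo after 10 min at room temperature.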
In the case of `Cc1cc(C)c(Nc2ccnc(Nc3ccc(C#N)cc3)n2)c(C)c1`, the Potency is reported as inconclusive: 10.3 µM [inhibitor, partial curve]. For `C=C1C(=O)O[C@@H]2C[C@H](C)[C@@H]3CC(=O)C(C)=C3C[C@H]12`, the Potency was active: 14.6 µM. With `CCNC(=O)C#Cc1ccc2c(C(=Nc3ccc(CN(C)C)cc3)c3ccccc3)c(O)[nH]c2c1` the Potency was inconclusive: 10 µM [inhibitor, partial curve, poor fit]. With `CC(=O)NCC(=O)N1C2CCC1c1cc(Nc3ncc(C(F)(F)F)c(NC4CCC4)n3)ccc12` (stereo unspecified) the Potency was inconclusive: 0.0461 µM [inhibitor, full curve, poor fit]. In the case of `Cc1c(NC(=O)OCC2COCCN2)cn2ncnc(Nc3ccc4c(cnn4Cc4cccc(F)c4)c3)c12` (stereo unspecified), the Potency is reported as inconclusive: 0.58 µM [inhibitor, full curve]. For `CN1CCN(c2ccc(C(=O)Nc3n[nH]c4ccc(Cc5cc(F)cc(F)c5)cc34)c(NC3CCOCC3)c2)CC1`, the Potency was active: 18.4 µM and active: 14.8 µM.

What follows are molecules tested on NIH3T3 in the same assay as above. Conditions: Five cell lines viability, CellTiter-Glo ATP luminescence, 48-72 h; max response: stronger effect = lower value.
Procedure, shortened: as §1
With `CC(=O)NC1=NN(C(C)=O)C(C)(c2ccccc2)S1` (stereo unspecified) the Potency was inconclusive: 6.51 µM [inhibitor, single point]. With `CNC(=O)c1cccc(-c2ccc3c(N4CCOC[C@@H]4C)nc(N4CCOC[C@@H]4C)nc3n2)c1` the Potency was active: 1.3 µM. With `Nc1ncnc2c1nc(N)n2[C@@H]1O[C@H](CO)[C@@H](O)[C@H]1O` the Potency was active: 4.11 µM. In the case of `COc1ccc(F)cc1-c1cc(NC(=O)[C@@H]2CCCNC2)ncc1Cl`, the Potency is reported as active: 1.03 µM. For `CC(CCC1(O)OC2CC3C4CC=C5CC(O[C@@H]6O[C@H](CO)[C@@H](O[C@@H]7O[C@@H](C)[C@H](O)[C@@H](O)[C@H]7O)[C@H](O)[C@H]6O[C@@H]6O[C@@H](C)[C@H](O)[C@@H](O)[C@H]6O)CCC5(C)C4CCC3(C)C2C1C)CO[C@@H]1O[C@H](CO)[C@@H](O)[C@H](O)[C@H]1O` (stereo partly specified), the Potency was inconclusive: 4.37 µM [inhibitor, partial curve, poor fit]. `COc1ccnc(CS(=O)c2nc3cc(OC(F)F)ccc3[nH]2)c1OC` (stereo unspecified) was tested, and the Potency was inconclusive: 25.9 µM [inhibitor, single point]. In the case of `Nc1cccc(CNC(=O)c2ccc(Oc3ccc(OCc4cccc(F)c4)cc3)nc2)c1`, the Potency is reported as inconclusive: 20.6 µM [inhibitor, single point]. With `C=C(CCC1=C(C)[C@H]2[C@H](CC3[C@@H]4CC=C5C[C@@H](O)C[C@@H](O)[C@]5(C)C4[C@H](O)C[C@@]32C)O1)CO[C@@H]1O[C@H](CO)[C@@H](O)[C@H](O)[C@H]1O` (stereo partly specified) the max response was inactive: 0.743%. In the case of `C[C@@H](O[C@H]1OCCN(Cc2n[nH]c(=O)[nH]2)[C@H]1c1ccc(F)cc1)c1cc(C(F)(F)F)cc(C(F)(F)F)c1`, the Potency is reported as inconclusive: 21.1 µM [inhibitor, single point]. In the case of `C(=C\c1ccccc1)/CN1CCN(C(c2ccccc2)c2ccccc2)CC1`, the max response is reported as inactive: -6.19%. In the case of `C=C1C(=O)O[C@H]2/C=C(/C)[C@@H](OC(C)=O)C/C=C(\C)C[C@@H](OC(=O)/C(=C/C)COC(=O)/C(=C/C)CO)[C@@H]12`, the Potency is reported as inconclusive: 14.2 µM [inhibitor, single point]. With `O=C(/C=C/c1ccc(O)c(O)c1)O[C@H]1[C@H](OC2CCCCC2O)O[C@H](CO)[C@@H](O)[C@@H]1O` (stereo partly specified) the outcome was “inactive”. For `CNc1cccc(CCOc2ccc3c(c2)CN(CC(F)(F)F)C(=O)[C@H](CC(=O)O)C3)n1`, the Potency was active: 0.116 µM. For `CC(Nc1ncnc2nc[nH]c12)c1cc2cccc(Cl)c2c(=O)n1-c1ccccc1` (stereo unspecified), the Potency was active: 13 µM. For `Cc1ccccc1-n1c([C@H](C)Nc2nc(N)nc3nc[nH]c23)nc2cccc(C)c2c1=O`, the Potency was inconclusive: 16.4 µM [inhibitor, single point]. In the case of `CC1CCN(C(=O)CC#N)CC1N(C)c1ncnc2[nH]ccc12` (stereo unspecified), the Potency is reported as inconclusive: 4.61 µM [inhibitor, single point]. For `O=C1CSc2ccccc2N1Cc1cccc(C(F)(F)F)c1`, the max response was inactive: 4.03%. With `CCN(CC)CCCCNc1ncc2c(n1)N(C)C(=O)N(c1c(Cl)c(OC)cc(OC)c1Cl)C2` the Potency was inconclusive: 26.4 µM [inhibitor, single point]. For `COc1ccc(Cc2cnc(N)nc2N)cc1OC`, the max response was inactive: -0.487%. With `C/C1=C\CCC2=CC(OC2=O)C(C)(C)/C=C/C1=O` (stereo unspecified) the Potency was inconclusive: 18.4 µM [inhibitor, single point].

Source: PubChem BioAssay (NCATS)
% is set by controls: 0 for no effect and ±100 for the full control effect; potency is the fitted concentration of half-maximal effect; tags give direction and shape of the fitted curve.
